The supplement of paper PMC11348887
Several values for one entry are separate records, joined by “and”; a condition that tells them apart may be missing. Identical values can stand only once. Counter-ions that a name gives are not always drawn. The list shows a part of the results. Cut-off read from the data, not from the text of the source: active = -2 or less and inactive = the rest. Many values rest on one well or one pass, so single values are uncertain.

Each molecule was assayed on hPSC-derived cortical neurons (WA09) (assay: nuclei number (viability) z-score; higher = more surviving cells). Conditions: 5 µM; treatment: days 7-14 after plating, readout day 21.
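Note: nuclei counted from DAPI counterstain by automated high-content image analysis, four fields per well at ×20 in 384-well plates, with sequential b-score then z-score normalization.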

| Structure (SMILES) | nuclei number (z-score) |
| --- | --- |
| CCC[C@H](N[C@H]1CCc2cc(F)cc(F)c2C1)C(=O)Nc1cn(C(C)(C)CNCC(C)(C)C)cn1 | inactive: 0.415 |
| CN1C(=O)C(Cc2c[nH]c3ccccc23)NC1=S (stereo not given) [Necrostatin-1] | inactive: 0.249 |
| Cc1cc2c(s1)Nc1ccccc1N=C2N1CCN(C)CC1 [Olanzapine] | inactive: -0.212 |
| CCn1c(-c2nonc2N)nc2c(C#CC(C)(C)O)ncc(OC[C@H]3CCCNC3)c21 | inactive: -1.22 |
| NC(=O)CC[C@H](N)C(=O)O [L-Glutamine] | inactive: 0.556 |
| CCN(CC)CCOc1ccc(Nc2ncc3cc(-c4c(Cl)cccc4Cl)c(=O)n(C)c3n2)cc1 | active: -3.32 |
| O=S(=O)(O)Oc1ccc(C(c2ccc(OS(=O)(=O)O)cc2)c2ccccn2)cc1 [Sodium Picosulfate] | inactive: 0.439 |
| OCCOc1ccc(/C(=C(/CCCl)c2ccccc2)c2ccccc2)cc1 [Ospemifene] | inactive: -0.274 |
| CC(C)OC(=O)C(C)(C)Oc1ccc(C(=O)c2ccc(Cl)cc2)cc1 [Fenofibrate] | inactive: -0.189 |
| CNC(=O)c1ccc(Nc2ncc(C(F)(F)F)c(NCc3nccnc3N(C)S(C)(=O)=O)n2)cc1 | inactive: -0.895 |
| Cc1ccc(NC(=O)C2(c3ccc4c(c3)OC(F)(F)O4)CC2)nc1-c1cccc(C(=O)O)c1 [VX-809 (Lumacaftor)] | inactive: 0.191 |
| Cn1cc(/C=C2\C(=O)Nc3cccnc32)c2ccccc21 | inactive: -1.17 |
| CNC(=O)c1cc(Oc2ccc3nc(N[C@@H]4CCCC[C@H]4O)sc3c2)ccn1 | inactive: -0.275 |
| CC(C)(C)c1ccc(S(=O)(=O)/C=C/C#N)cc1 | inactive: -1.75 |
| CC(=O)c1c(C)c2cnc(Nc3ccc(N4CCNCC4)cn3)nc2n(C2CCCC2)c1=O | inactive: -1.05 and inactive: -0.939 |
| CCN1C[C@H](C)n2c(c(O)c3c(=O)n(Cc4ccc(F)c(Cl)c4)nc(C(=O)NC)c32)C1=O | inactive: 1.94 |
| CCCNC(=O)Nc1ccc(Oc2ncnc3cc(OC)c(OC)cc23)cc1Cl | inactive: -0.339 |
| Cc1cc(O)cc(C)c1Cl [Chloroxylenol] | inactive: 0.112 |
| Cc1cn(-c2cc(NC(=O)c3ccc(C)c(Nc4nccc(-c5cccnc5)n4)c3)cc(C(F)(F)F)c2)cn1 [Nilotinib (AMN-107)] | inactive: -0.237 |
| NC(=O)c1ccc(-c2nc(-c3ccccn3)c(-c3ccc4c(c3)OCO4)[nH]2)cc1 | inactive: 4.06 |
| C[C@@H](O[C@H]1OCCN(Cc2n[nH]c(=O)[nH]2)[C@H]1c1ccc(F)cc1)c1cc(C(F)(F)F)cc(C(F)(F)F)c1 [Aprepitant] | inactive: -0.555 |
| Oc1cccc(O)c1 [Resorcinol] | inactive: 0.393 |
| COc1ccc(C2=N[C@@H](c3ccc(Cl)cc3)[C@@H](c3ccc(Cl)cc3)N2C(=O)N2CCNC(=O)C2)c(OC(C)C)c1 [Nutlin-3a] | active: -3.66 |

| Structure (SMILES) | nuclei number (z-score) |
| --- | --- |
| COc1ccc(C2=N[C@@H](c3ccc(Cl)cc3)[C@@H](c3ccc(Cl)cc3)N2C(=O)N2CCNC(=O)C2)c(OC(C)C)c1 [Nutlin-3] | inactive: -1.03 |
| CN/C(=N\CCSCc1nc[nH]c1C)NC#N [Cimetidine] | inactive: -0.642 |
| c1ccc(C2CN3CCSC3=N2)cc1 (single isomer, unassigned; (-)) [(-)-Tetramisole] | inactive: -0.53 |
| C/C(=C\C(=O)OCCCCCCCCC(=O)O)C[C@@H]1OC[C@H](C[C@@H]2O[C@H]2[C@@H](C)[C@H](C)O)[C@@H](O)[C@H]1O [Mupirocin] | inactive: 1.06 |
| O=C(O)c1cc(/N=N/c2ccc(S(=O)(=O)Nc3ccccn3)cc2)ccc1O [Sulfasalazine] | inactive: 0.228 |
| NC(=O)c1ccc(I)c([N+](=O)[O-])c1 [Iniparib (BSI-201)] | inactive: -1.58 |
| C#C[C@]1(O)CC[C@H]2[C@@H]3CCC4=CC(=O)CC[C@@H]4[C@H]3C(=C)C[C@@]21CC [Etonogestrel] | inactive: -0.0564 |
| CCOc1ccc2nc(S(N)(=O)=O)sc2c1 [Ethoxzolamide] | inactive: 0.52 |
| c1coc(CNc2ncnc3[nH]cnc23)c1 [Kinetin] | inactive: -0.103 |
| CS(=O)(=O)c1ccc(-c2nnc(/C=C/c3nnc(-c4ccc(C#N)cc4)o3)n2-c2ccccc2Cl)nc1 | inactive: 1.25 |
| C[C@]12CCC3=C4CCC(=O)C=C4CC[C@H]3[C@@H]1CC[C@@]2(O)CC#N [Dienogest] | inactive: 1.11 |
| C[C@@H]1C[C@H]2[C@@H]3CCC4=CC(=O)C=C[C@]4(C)[C@@]3(Cl)[C@@H](O)C[C@]2(C)[C@@]1(OC(=O)c1ccco1)C(=O)CCl [Mometasone furoate] | inactive: 0.915 |
| CCOC(=O)[C@H](CCc1ccccc1)N[C@@H](C)C(=O)N1C(=O)N(C)C[C@H]1C(=O)O [Imidapril HCl] | inactive: -0.205 |
| O=C(O)c1ccccc1O [Salicylic acid] | inactive: 0.0223 |
| COc1cc2ncnc(Nc3cccc(Cl)c3)c2cc1OC [AG-1478 (Tyrphostin AG-1478)] | inactive: 0.184 |
| Cc1[nH]nc(C(F)(F)F)c1Cc1sc2c(c1C(=O)N1C[C@](C)(O)CO1)c(=O)n(C)c(=O)n2C(C)C | active: -4.49 |
| O=c1oc2cc(O)ccc2s1 [Tioxolone] | inactive: 0.375 |
| Cc1ccccc1C(C(=O)NC1CCCCC1)N(C(=O)Cn1ccnc1C)c1cccc(F)c1 (stereo not given) | inactive: -0.0338 |
| O=C(O)c1cc(=O)[nH]c(=O)[nH]1 [Orotic acid (6-Carboxyuracil)] | inactive: -0.878 |
| O=c1n(CCCN2CCN(c3cccc(Cl)c3)CC2)nc2ccccn12 [Trazodone HCl] | inactive: 0.295 |
| CC1(C)S[C@@H]2[C@H](NC(=O)[C@H](N)c3ccccc3)C(=O)N2[C@H]1C(=O)O [Ampicillin Trihydrate] | inactive: -1.18 |
| CC1(C)S[C@@H]2[C@H](NC(=O)[C@H](N)c3ccccc3)C(=O)N2[C@H]1C(=O)O [Ampicillin sodium] | inactive: 0.829 |
